± gives the standard deviation of the averaged measurements. In all, about 4,000 sequences were measured (“arbitrary fluorescence units”: median about 830, highest 2% from about 6,500 on). This part holds few or none of the hits.
These sequences were tested against RUNX1 (UniProt Q01196) (assay: RUNX1 binding intensity (PBM fluorescence), RUNX1 alone (arbitrary fluorescence units); higher = stronger binding). Details: RUNX1 concentration 2 nM; ETS1 concentration 0 nM.
Procedure: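 gcPBM on 36-bp genomic-derived probes (partner site mutated) containing one RUNX1 site and no ETS1 site. Recombinant human RUNX1 (2 nM) was incubated alone or with ETS1 (25 nM) and detected by anti-RUNX1 antibody fluorescence. Values are medians over 4 replicate spots (not normalised). The probes sit in constant array flanks that are not printed.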
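Note: Full-length recombinant human RUNX1 bound to double-stranded DNA microarray spots, detected with an Alexa488-labelled secondary antibody after the anti-RUNX1 primary, read as scanned spot fluorescence.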

Chain of UniProt Q01196 (Q01196 whole entry): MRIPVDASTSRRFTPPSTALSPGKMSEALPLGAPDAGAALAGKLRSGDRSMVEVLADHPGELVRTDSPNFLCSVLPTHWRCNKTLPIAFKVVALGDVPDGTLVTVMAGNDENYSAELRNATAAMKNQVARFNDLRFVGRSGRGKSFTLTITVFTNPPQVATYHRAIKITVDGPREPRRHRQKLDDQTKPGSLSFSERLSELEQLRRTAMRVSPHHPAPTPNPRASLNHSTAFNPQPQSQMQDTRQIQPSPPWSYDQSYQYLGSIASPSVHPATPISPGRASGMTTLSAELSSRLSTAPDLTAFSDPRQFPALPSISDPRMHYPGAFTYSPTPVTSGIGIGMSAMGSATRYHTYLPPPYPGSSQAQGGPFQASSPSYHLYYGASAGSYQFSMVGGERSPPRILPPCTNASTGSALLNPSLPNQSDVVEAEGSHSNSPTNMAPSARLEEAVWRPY

| Sequence | RUNX1 binding intensity |
| --- | --- |
| GAACACGGAGACACTGAGCTTTTACTTTGACCACAC | 858 |
| GCCACTGCCTGGAAAACAGTAATTACCACACGTCTC | 990 |
| GGTGGACCTGTGGTTTGCAACACAGAAAGAGGCGGC | 1290 |
| GTGACCACTGCCTAGTTACTGCCAGCTGAACGAAGG | 729 |
| GGTGGACCTGTGGTTTGCAACACAGAAAGAGGTGGC | 1580 |
| CTCAGCCCACCGCTGCGCGGCCGAAAGTCGGAGGTT | 760 |
| AGTTTCTTCTTTCAGGTGGGTTTGTGGTCTTGCTGA | 1040 |
| CCAGACCCGGCTGAACTACCGTGCCCACAAGGCAGC | 820 |
| GACAGAGGCAACTAGGTGTGACAACCACAAACAGCT | 921 |
| AGATCTTATAAGCCGCACAGGCCGTAAGGAAAAGGG | 716 |
| GTCTTACTGCCTGTCCCCGCCCACCGCGACTGTCTT | 1470 |
| GTTCATCCAGGCAACCCCAACCCAGTGCCGCAGTAT | 888 |
| CAGGAGAACCCACAATGCACCGAAACTGCCGCCCCC | 1230 |
| GTCCCTGTTTCATCCCTCAGCTCCCGCAACCTCCGG | 1900 |
| GCGGCGAACCTGACGCCCCAACCACCCGCCCCCCAC | 1020 |
| AGACTCCATACGCCATGTTGGATGCCGCAGATTCGC | 781 |
| ATGGGACGAAGAGACAGAGGCCTGACCACTAAGTGG | 676 |
| TCCCGGCGTTCTTCAGCTGGCTCAGCCGCAAGTACC | 772 |
| AGGCCGTGCAGCAAATGAGACCCACAGCCACGTCAC | 787 |
| GGGGACGGCCCCACAGCTCCCGTACGCCACGGCCAG | 805 |
| GCGCAGAGGACCGCGGCGACCGTAAAAGCAAGGCAG | 705 |
| GAAATTTGCGCTTTCTTTCTGCAGCAGGAACCGCGG | 683 |
| GAGGGGTGGGCCGCAGGCGCCGAACGTGACGTAAGC | 692 |
| GATGTGGGTAAGAGAAGCAGGCACACGATGCTGCCC | 714 |
| GGAGGAGGTGACACCCACCCACTGCCCCCGCAAGGT | 804 |

| Sequence | RUNX1 binding intensity |
| --- | --- |
| GGACCCACAGCCGTGTGGGCAGCCTCAGAATGAGCT | 743 |
| GGGTTGGTGGTTATCAGCGGGGGGAGGTAGGAGGTG | 1140 |
| GGGGGGGTGCGGTCCTGGTCGGGAGGAGGTGGAGAG | 869 |
| AAGGCAAACAGCAAATCATAACCACAAACCAGGAAC | 1880 |
| GCCTCCTCACCGCAGTGAGCAGATCCCCTTGGGTTG | 2170 |
| ACACCACTCATGAAGACAAAGCCACACCTCACACCG | 1260 |
| CCCGAAAACTCAACTGCCCACTGCTGCGGCCGCCAT | 974 |
| GCACACACACAGCCTCCCGGCCCGGCCGCAGCCGCT | 839 |
| GGGGCACGAAACAGCGTCCTGCGCGGGTAGCCCCTG | 664 |
| AGCACCCCCTTGCGGTGTCTGGAGCAAGCGGCGCGG | 826 |
| ACACGCACCATCTCCCGACTTTCGCGGTGTCCCAGG | 957 |
| TCGCTCCCTGCTCCACTTCTCGGCGCCCACATCTCC | 1540 |
| TTTCACTCCCGGCATGTTTTTCACCCACAGGGATAT | 1100 |
| TGCGCGGCCGCAGGGGCCAGACCCTGACGGCTCCAG | 734 |
| TTGCTAGAGGAGGCGCTGCCCCGGCAGCCGCAGCCA | 777 |
| TCACGTGACCGCGCTCCGGTAACTGAAGAAACAAGA | 909 |
| AGAAAGAAACCGCGAGGCAAACGGCAGTATATAGGA | 2030 |
| ATATAGAATCTTACCACAATCACTTGCTGAGTCTAT | 1370 |
| CAAGCACATTACGTAAGAGGCTGACCGCAAATACGA | 4800 |
| GTTTAACATGAAACCCTGCAGACCACAGGTTCTGTC | 911 |
| GGCCCCAACGCGGTTAGCGCTTGCGAAAACTCCCCC | 1060 |
| AGGACGGGCGAAAGTGGCTGCGGTGGATGGTGGGAG | 788 |
| CGAGCAGCGGTTGCCGCGGGGGGGGAACAAACAGGC | 775 |
| CTTTTCGCGTTGTGGCTGGGACTTTCGCTCCGCCAT | 886 |
| CCAGAGACCACAGCCACTCTCTTCTCCCCATCAGCC | 1570 |

| Sequence | RUNX1 binding intensity |
| --- | --- |
| TGTTTTTGTCTCCGTTTACAAACCACAACAAAGGTG | 1670 |
| TTTGCAAAACCACTGCGGAGACTCCCGGTGGCCTAG | 704 |
| AGCCCGGCTTCAGGCGCGTGCCGCTGCGGCTGCAGG | 711 |
| GGCCTCTGCGGCGCCGCGACATGAAGCGGCGGGCGA | 689 |
| GCTGCCACCTCCCTTGCTTATTTCATGTGGTTTGGA | 1150 |
| TGGGCATTACCGCTTTCCAGCTGAAGGGGGCATCTT | 842 |
| GCTTCTGAGGCAGTGCGTTTTGTGGGTAGGTGGAGT | 821 |
| CCCCTGCCCCTTCATGGAAGGCTGCGGTGTAACACC | 916 |
| GCGCACTCCCGGGCTGGTGAACGCGGTGACGTCACC | 708 |
| GTGCGGAACCGCCATTTTTAAAGGGCCAGGGAGCTT | 760 |
| CCCGCGGTGCGTGCGCAGCTCCGACTCCCGGGTGCT | 802 |
| CAAACGATAGCAGCAAAGGCCTGTGGCTTGACAGCA | 713 |
| GCATTGTGCTTCAGCTCGGGGAAAGACCGCTTACGG | 643 |
| GCCAGGCGCCCACAGGTTGGCATGAAGAGCACTTAG | 774 |
| AGGGATGCTGGGACATGTAGTCCAGCCACAAGCCAA | 761 |
| CCTTTGTGGTAGCAGTGGCCCCGCGCGGAGGACGTT | 860 |
| CTGTCTTGGTTTTCTGTTCTTATTTTAGTTTCATGT | 1850 |
| TTCCAGTTTGCGCCAGCCACCTGAACTGCGGCCCAG | 760 |
| TTCTGCAAGAAAACCAACATAATTTGCTGTCTCTAC | 754 |
| GAGGTTGGGAACTTCTTCCTTTGGTCTGACCACAGT | 793 |
| GCACAAAGCCACAAAACCCATTCCTGCCGGCTATGA | 1430 |
| AAAGGCACGGTGGTTAGCGCGGGCTTGCTGGAGGAC | 789 |
| CGGGGCGCGGTTCCCCCTGGGCTCCCTGAAGTAATA | 759 |
| CCACACGGCAGGGAGTCGTGTCGTGGTTTACCCCGG | 752 |
| CGGAGCGCGGTGGGGTGGGTGCGGCAGGGGGCGAGG | 874 |

| Sequence | RUNX1 binding intensity |
| --- | --- |
| CCATGAAGGCGCCTGCATCCTCCAAGCCCACAGAGC | 822 |
| TGTGGCAACCACAGCCCCAAAACAAAGAGGAGACAC | 1040 |
| GGCACTCCCGGTCCTGACCTGAAGCGGTAACCGTCA | 772 |
| CTTGCGCCCACAGAGCCCGCCACTGCCGCCTCACAG | 1000 |
| GCACTCCCGGAGCCGGGCGTCTACAGACCGCGGCCA | 790 |
| GTAACAACACCACAGCGGACATGAAGAGGTCACCAA | 793 |
| TCCAACCTCAACATGCAAAACTCAGAGGCAACGCAG | 891 |
| CAACTCCGGCGCCCGCAGGCCACTTTCGCCTATGTA | 1070 |
| CGATGCTTACGGCCTCCTATTGGGTGGTTTCTTGGC | 694 |
| TAAAGAGGAATCGGCAGCCGCGCCTGCGCCCACAGT | 625 |
| CCCCTCCGCTAACCGCTCATCCCAGCAAAAAGGGGC | 1240 |
| AGCGGCTCCTGCCGGCGGCGCGGGTTCCCTTCCCTC | 857 |
| TCCCGGGAGCGGTTTTAGGGGGCCGCCTCCTTGGCC | 685 ± 22 |
| CCCCAGGTTGCTTCAGTTCTGGGAACCGCGTCCTCG | 755 |
| CCCGGCGGTTACTTTCGGTCACTTTCGCCGGGACCT | 847 |
| GCGCCCGGCCCCGCACACGCACCATTTGCTGGCTTC | 906 |
| CTGCTAGCTGAAGCAGCCAAGCCCACAGGCTCCAGG | 712 |
| AGACGGTTCCAGGGGACCGGCCGCGACTGCGGCGGC | 670 |
| TGGTCGCCGCAGCGAACAACCAGCTTACGGCAAGCT | 687 |
| ACCTCCTCCGAGACCCAAAATGCGCGGTCTGGAGAG | 855 |
| TACAACCGCCAGTAACGACAGCAGCTTTCGTTCCCC | 783 |
| GTTGTGGGGAGTGCAAAAGCCCAGCAGCAAGCCGCT | 777 |
| TGCGAGGAGGCGCGGCCACGTGACTGCTGCGGGCCA | 730 |
| CAGGGAGGTGATGCACAGAAAACACAACCACACTGT | 808 |
| TAGCACCCAAAACCACCTACTGGCTTCAGGCACCTC | 994 |

| Sequence | RUNX1 binding intensity |
| --- | --- |
| ATCACTTGTTGCCGCCAGCAAACCACAGGTCCCCAG | 1230 |
| GGCGGGTTCAGGCTATTCCCTTCGCGGTCCAGTTTA | 818 |
| CGATCCATTCGCGGTCTGCACCCGTAAAGTACACCT | 1150 |
| TGTTCAGGAACAGGCAATGAAACCCCGCAGCTTTGA | 717 |
| CCCGGCCCAGGCAACTTCAGACTTCACCGCAGCTTC | 1060 |
| CCGCCGCGCGCCGAATGCTAAGACCGCGATTTCCCC | 805 |
| TCCTCCGTTCCCGTAGTTCCGAGTTGCGGTTTCTCC | 7620 |
| AATATAGGAGGTGTCAGCTAGGGAACTCAACCACAA | 828 |
| GAGGGAAGCCCTCACCACAGCAGGAATGGGAGCCAG | 769 |
| TGGCTGGGCATGAAGGCCTGTGGCTTACGGTTCCTG | 694 |
| TGGCTACCCGAAAGGCGCGTTGGCTGCGGCTACGCA | 733 |
| GCACCGTACCCGGCACTGCTCCCTCCCGCAGGCGCA | 901 |
| GTTCTCCACATGCTGTGCCGTAGCTGTGGTGCACCG | 819 |
| CCCGCCAGTTCCCTGCCTCTGCGGGAGCCCCCCAGC | 881 |
| CAGAAAAGGCAGGCAGTGGTACAAACCACAAAAGGC | 1060 |
| GAGCTGCAAGCCACAAAGACCGAAAGTGCGCGTACG | 721 |
| AGCACGCCGGGAACTGGAGTCTCAGGTGGTTTTTAA | 733 |
| CAGCTTTCCAGCCTGCAGCACAGGCAATGTGGTTTT | 1010 |
| CCTTCCCCTGTCGGAGAGCCCACCGCTGGGTCCTAA | 950 |
| GGGGGCGGCAGTTTCGGTGCATTGTGGGTTCTCCTG | 775 |
| TGCTGGCTGCGGCCCTTGCCGTTGCTTTCAGGCGCA | 704 |
| ACTCCAGAGGAGGTGGCAAGACGAGCGCGGTAACGG | 733 |
| TGCCTTCTGGGAATTCGGGCGCTCTGCGGCTGTGAC | 722 |
| CTGTTAGTGGTTTGAATCTCACACCCTGTAATGGTT | 948 |
| TTTAATTCTGTGGTTAGAAGTAAAAGGACGTAAAGG | 3370 |

— the supplement of paper PMC10681739
